Data as given in the supplement of paper PMC3334620.
Whole data set: some 33,000 sequences, median “E-score (-0.5 to 0.5)” near -0.053, cut for the highest 2% near 0.37. The list shows a part of the results.

Target: Hap1 (UniProt P0CE41)
Experiment: PBM E-score (8-mer binding enrichment) (E-score (-0.5 to 0.5)); higher = stronger / more preferred TF binding; most listed sequences are background and not binding sites
Details: protein concentration: 200 nM; construct: GST-DNA-binding domain
How it was run: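 E-scores (a modified Wilcoxon-Mann-Whitney statistic) were assigned by the Universal PBM Analysis Suite to every ungapped eight-base word pooled with its reverse complement. The input came from universal all-10-mer Agilent arrays made double-stranded by primer extension and probed with GST-tagged yeast transcription factors at about 100-200 nM. Fluorescent anti-GST detected bound protein, and masliner normalised the scans.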

Sequence of UniProt P0CE41 (P0CE41 whole entry): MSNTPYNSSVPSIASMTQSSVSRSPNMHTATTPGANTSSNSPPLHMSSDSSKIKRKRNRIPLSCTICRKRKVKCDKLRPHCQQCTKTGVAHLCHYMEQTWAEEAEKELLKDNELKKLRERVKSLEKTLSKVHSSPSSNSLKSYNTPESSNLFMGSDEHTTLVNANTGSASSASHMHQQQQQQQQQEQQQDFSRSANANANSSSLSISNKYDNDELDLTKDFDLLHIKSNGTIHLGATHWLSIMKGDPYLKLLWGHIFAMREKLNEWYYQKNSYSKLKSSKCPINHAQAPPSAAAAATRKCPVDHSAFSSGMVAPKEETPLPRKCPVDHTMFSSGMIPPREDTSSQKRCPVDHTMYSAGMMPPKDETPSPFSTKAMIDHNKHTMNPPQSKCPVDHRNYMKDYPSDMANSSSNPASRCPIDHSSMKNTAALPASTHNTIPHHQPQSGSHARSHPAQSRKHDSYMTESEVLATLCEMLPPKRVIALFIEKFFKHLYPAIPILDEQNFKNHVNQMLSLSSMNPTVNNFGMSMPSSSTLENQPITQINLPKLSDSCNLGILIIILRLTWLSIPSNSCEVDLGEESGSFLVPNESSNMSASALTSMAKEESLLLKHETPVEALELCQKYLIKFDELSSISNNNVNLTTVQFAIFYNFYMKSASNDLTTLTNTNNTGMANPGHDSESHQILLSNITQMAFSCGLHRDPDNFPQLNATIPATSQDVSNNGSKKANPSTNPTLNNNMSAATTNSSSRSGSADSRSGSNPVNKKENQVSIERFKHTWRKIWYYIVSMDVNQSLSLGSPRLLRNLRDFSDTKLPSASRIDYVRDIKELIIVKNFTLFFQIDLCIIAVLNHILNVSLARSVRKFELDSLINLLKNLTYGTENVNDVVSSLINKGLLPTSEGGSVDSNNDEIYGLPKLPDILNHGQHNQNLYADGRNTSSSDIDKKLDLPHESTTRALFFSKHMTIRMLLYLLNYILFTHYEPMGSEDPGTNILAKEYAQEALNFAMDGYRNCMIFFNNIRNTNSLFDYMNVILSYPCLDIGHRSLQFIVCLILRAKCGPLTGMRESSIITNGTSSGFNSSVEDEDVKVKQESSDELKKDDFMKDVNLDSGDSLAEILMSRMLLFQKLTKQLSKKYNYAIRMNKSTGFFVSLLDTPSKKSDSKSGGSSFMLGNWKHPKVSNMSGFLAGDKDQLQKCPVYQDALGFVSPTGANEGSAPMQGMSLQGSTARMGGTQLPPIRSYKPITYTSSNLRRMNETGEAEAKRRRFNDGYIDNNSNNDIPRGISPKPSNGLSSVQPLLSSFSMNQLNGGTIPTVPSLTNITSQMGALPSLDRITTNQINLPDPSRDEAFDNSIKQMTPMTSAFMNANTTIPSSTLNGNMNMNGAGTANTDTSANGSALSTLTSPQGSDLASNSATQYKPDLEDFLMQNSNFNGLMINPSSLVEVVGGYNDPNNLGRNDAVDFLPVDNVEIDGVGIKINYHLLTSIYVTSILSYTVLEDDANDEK

Sequence | PBM E-score
AACGTAAA | -0.0453
ATGATGTG | -0.149
ATAGGTCC | 0.188
AGATTTTC | -0.0985
CGTCAGAC | -0.032
CGTCCGAA | 0.394
GTCTTTTA | -0.127
AACGGCGC | 0.0607
CACGGCAG | -0.062
ACGCGTCT | -0.171
GACGTCAA | -0.252
GCAAGTGC | -0.283
AACCCTAA | 0.0217
ATAGAAGG | -0.0396
AGCCCCTG | -0.269
AGTGCCCG | 0.195
CTGCGCTC | -0.211
AAAGCCGT | 0.322
CTGAATGA | -0.058
GCACGGGC | 0.0511
ATCTTTTA | -0.068
AACCGTTG | -0.012
CGTGGACA | 0.0235
ACGGTCGA | 0.167
CGCATGCG | -0.0985

Sequence | PBM E-score
ACAGGGCC | 0.115
CTACAGCC | -0.0654
CTAGGAAC | -0.184
AAAACTGC | -0.181
GGCCGAAA | 0.405
CTCCTTGC | -0.281
AACGAAGA | -0.13
CCTATGGC | -0.0292
AAACGGTC | 0.114
AGAATGGG | -0.113
GCCGCGCA | 0.0598
ACTCAGGA | -0.123
AAGATCGG | 0.304
GCGGTAAC | 0.256
AAAACGTG | -0.174
GGAAAAGA | -0.0335
ATTACGGA | 0.356
AGGATCTA | -0.253
GGCCGCAC | 0.181
GATGTAAA | 0.051
TCGTAACA | -0.0597
AATCCCGT | 0.372
TATGATCA | -0.25
AGAGGTAA | -0.00854
GATCCGAA | 0.379

Sequence | PBM E-score
ATGGAACA | -0.24
AGGGAAAC | -0.161
CCCTTAGC | 0.113
CGTTAAAC | 0.145
CACTAAAA | -0.0313
CCTACAGG | -0.128
TCTTTCCA | -0.0363
CCAGCCCG | 0.133
ATAACAAG | -0.0403
AAAGGTAA | -0.168
CGATGGAC | 0.0177
AATTCAAC | 0.0932
CTCCGGAA | 0.422
GACTACGC | -0.0641
ACTATCCG | 0.268
ATATTTGG | -0.0588
CTCACTGA | -0.285
GGGCAGAC | 0.0312
CACCGGCC | 0.313
GGCAGTGA | -0.24
AAAAGTTA | -0.115
ACTTTCGA | -0.0578
GCGTACGC | 0.0589
AATCGGCA | 0.224
CAAAAGAG | -0.185

Sequence | PBM E-score
ATTATGAG | -0.044
ATCCACAG | -0.0282
AGTAGGGG | -0.0847
AGTCTTCA | -0.188
AAAGTTGT | 0.0574
AACGAGGC | -0.0571
GGCTGTGA | -0.225
GAGCAACC | -0.0422
ATTAGACG | 0.0149
ATTGAATA | -0.0697
CGAACGGC | 0.163
GCATGACA | -0.341
CTTCGGCC | 0.309
ATAGACAT | -0.193
GGAGACCC | 0.0798
GATTGCCA | -0.00798
AACCAAAT | 0.0673
CTGCGTTA | 0.0146
TAAACCAA | -0.17
ATTTACTC | -0.0227
AGCGTAAT | -0.0155
CGGCTGCC | 0.162
AGGATGTG | -0.109
ACGGGCCG | 0.29
TCCAGTCA | -0.0585

Sequence | PBM E-score
GATTTAGC | 0.18
CCAACGGG | 0.228
CGGTATCA | 0.22
GACGTCCC | 0.0301
AGAACATG | -0.0473
AGGTCGGA | 0.321
GCCCTTCA | -0.165
TGCTTAAA | -0.0635
CATGTATC | 0.00111
AGAGCGTG | -0.113
CCATGACC | -0.0264
AGCCGCGC | 0.114
AGGTGGCC | -0.0843
CACAAGGG | -0.352
ACACAGGT | -0.384
AGTGGGAC | -0.0427
ATAAGTAG | -0.117
ATGCGAAA | 0.0186
CTTATCTA | 0.0113
CCTTCCAG | -0.272
GGCCCGCA | 0.157
AGATGCCA | -0.197
AATGAAGA | -0.139
GAGTCTTA | -0.142
GGTCTCCA | -0.137

Sequence | PBM E-score
CCTTGACG | -0.108
AATTACGA | 0.0145
TATTTTCA | -0.0731
ACTCGTCG | -0.172
TCTGGGAA | -0.164
AGCTACCT | -0.0663
AATCGACA | 0.0198
ATTGCGAG | -0.0394
GCCACCAA | -0.0202
CACACCAA | -0.0413
ATGTCATA | -0.118
GTTCTAGA | -0.0501
CTGCTCCA | -0.239
AGCTTTTG | -0.167
TCGTCGAA | -0.379
GGACACAC | 0.21
CACTAGGG | -0.201
AGTACAAC | 0.0179
ACTCAGGG | -0.191
CGAGCGCG | 0.255
CCTAGTTC | -0.00076
CAATGCGG | 0.0834
AAGTATAG | -0.201
AGGCAGCC | -0.0546
AAAACGGG | 0.174

Sequence | PBM E-score
AATTGGGG | -0.0682
GAAGCTCA | -0.0573
CGCCTCCC | -0.146
AGAATGAA | -0.186
TAGTTGGA | -0.0576
TCGGCTAA | 0.291
AGACGGTA | -0.091
GCTCAGAC | -0.228
AACCCGTT | 0.198
ACTCGAGT | -0.261
CACCCAGC | 0.0736
ACAACGGT | 0.186
ACACGGTA | 0.0749
AAACGATG | 0.0211
ATATGGGC | -0.0119
TAGCTGCA | -0.23
CCACCGAC | 0.129
TACAGATA | -0.00692
AAAGAGAT | -0.23
AATCCTGC | -0.0722
ACGCGCAC | 0.0542
GAAGAGCA | -0.165
